Measured values from publication PMC4336329 (PLoS ONE, 2015).
Hit rate of the full screen: of about 310,000 compounds, about 2,200 (0.71%) showed an effect of 50% or more. Effects have a minus sign here. This is one part of the list.

target: human ether-à-go-go-related gene (hERG) potassium channel (human, UniProt Q12809); experiment: primary screen, population patch clamp on CHO cells stably expressing hERG
Sequence (Q12809 whole entry, looked up): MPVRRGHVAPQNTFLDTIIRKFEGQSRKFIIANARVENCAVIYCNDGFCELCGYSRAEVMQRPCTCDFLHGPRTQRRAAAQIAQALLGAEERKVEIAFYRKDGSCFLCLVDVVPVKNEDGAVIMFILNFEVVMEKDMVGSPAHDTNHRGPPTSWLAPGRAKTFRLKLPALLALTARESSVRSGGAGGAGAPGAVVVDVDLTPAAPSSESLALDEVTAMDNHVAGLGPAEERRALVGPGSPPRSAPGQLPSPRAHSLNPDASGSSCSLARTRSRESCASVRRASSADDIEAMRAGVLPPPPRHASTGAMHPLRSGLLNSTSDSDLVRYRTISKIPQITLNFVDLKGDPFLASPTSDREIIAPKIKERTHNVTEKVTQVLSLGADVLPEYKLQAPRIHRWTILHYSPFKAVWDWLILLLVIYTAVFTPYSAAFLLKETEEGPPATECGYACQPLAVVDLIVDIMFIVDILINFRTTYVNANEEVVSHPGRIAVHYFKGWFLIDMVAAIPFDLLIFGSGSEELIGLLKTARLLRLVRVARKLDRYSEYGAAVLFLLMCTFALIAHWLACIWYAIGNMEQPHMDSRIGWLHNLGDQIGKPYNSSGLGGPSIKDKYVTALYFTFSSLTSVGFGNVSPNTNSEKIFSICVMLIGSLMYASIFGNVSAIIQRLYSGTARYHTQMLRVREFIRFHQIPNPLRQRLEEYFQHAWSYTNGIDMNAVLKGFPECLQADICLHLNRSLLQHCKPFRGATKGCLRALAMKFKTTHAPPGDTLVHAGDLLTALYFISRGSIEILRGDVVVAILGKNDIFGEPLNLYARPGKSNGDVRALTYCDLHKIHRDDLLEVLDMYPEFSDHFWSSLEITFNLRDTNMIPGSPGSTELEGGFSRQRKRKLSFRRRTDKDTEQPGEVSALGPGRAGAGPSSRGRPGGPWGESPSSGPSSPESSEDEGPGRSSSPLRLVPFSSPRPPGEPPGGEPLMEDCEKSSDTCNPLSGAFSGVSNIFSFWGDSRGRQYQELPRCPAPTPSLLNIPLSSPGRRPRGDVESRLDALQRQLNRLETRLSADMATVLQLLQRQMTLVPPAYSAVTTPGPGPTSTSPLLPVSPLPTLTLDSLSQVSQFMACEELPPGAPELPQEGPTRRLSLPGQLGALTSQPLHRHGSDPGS

Structure (SMILES)	hERG current change (%, negative = inhibition) at 1uM [%]
CCN(CC(=O)Nc1ccc(NC(C)=O)cc1)C(=O)c1ccc(NC2CC2)c([N+](=O)[O-])c1	22.3
O=C1CCCc2nc(N3CCCCC3)sc21	10.1
CCOC(=O)Cc1csc(NC(=O)c2ccc(S(=O)(=O)N3CCCCC3)cc2)n1	-13.4
Cn1cnc(S(=O)(=O)NCc2ccc(Br)cc2)c1	0.577
Cc1c(C(=O)NCc2ccc3c(c2)OCO3)oc2ccc(S(=O)(=O)N3CCC(C)CC3)cc12	0.865
Cc1cccc2nc(CSc3nnnn3-c3ccccc3)cn12	0.496
O=C(Cc1ccc(Cl)cc1)NCCc1ccc(F)cc1	10.3
O=C(Nc1nnc(-c2cccs2)o1)c1cccc(F)c1	11.8
NS(=O)(=O)c1ccc(CNC(=O)c2ccc(Cl)c([N+](=O)[O-])c2)cc1	10.3
Oc1ccc(-c2nccc(-c3ccc(F)cc3)n2)cc1	18.5
Cc1c2cnn(CC(=O)Nc3cccc(C(F)(F)F)c3)c(=O)c2c(C)n1Cc1ccccc1F	8.62
CCn1c(SCC(=O)Nc2ccccc2)nnc1C1CCCCC1	23.6
Cc1cc(C)n2nc(SCc3nnc(SCc4ccccc4C)s3)nc2n1	-2.18
O=C(O)CC(NC(=O)c1ccccc1NC(=O)c1ccccc1)C(=O)O (stereo not shown)	3.71
CN(C1=C(N2CCCCC2)C(=O)c2ccccc2C1=O)c1ccccc1	11
CC(C)CCN1CCN(Cc2cccn2-c2cccnc2)CC1CCO (stereo not shown)	-9.84
CCCN1CCN(CCCNC(=O)c2ccc3nc(N4CCC(C)CC4)sc3c2)CC1	-3.22
CCCCCCCN1CCN=C1Nc1ccccc1	-12.2
COC(=O)c1c(NC(=O)C(=O)NCCCN2CCOCC2)sc2c1CCCC2	8.68
Clc1ccc(Oc2cnc3ccccc3n2)cc1	-3.77

Structure (SMILES)	hERG current change (%, negative = inhibition) at 1uM [%]
CCc1ccccc1N(C)C(=O)CCc1nc(-c2ccc(C)cc2)no1	10.9
CCOc1ccc(-c2nnn(CC(=O)c3ccc4c(c3)OCCO4)n2)cc1OCC	8.01
O=C(CSc1n[nH]c(-c2ccc(S(=O)(=O)N3CCCCC3)cc2)n1)Nc1nccs1	8.22
Clc1ccc2[nH]c3c(NCCCN4CCOCC4)ncnc3c2c1	-32.7
Cc1noc(NC(=O)c2ccccc2)c1C#N	7.08
O=C(Cc1n[nH]c(=O)c2ccccc12)OCC(=O)c1ccccc1	14
CCC(OC(=O)c1nsc(Cl)c1Cl)C(=O)NCCc1ccccc1 (stereo not shown)	11.4
CC(C(=O)N1CCOCC1)N1C(=O)c2cccc3cccc(c23)C1=O (stereo not shown)	13.6
C#Cc1ccc([C@H]2C=C(C(=O)NCc3ccccc3)O[C@@H](OCc3ccc(CO)cc3)C2)cc1	15.4
CCOC(=O)c1ccc(NC(=O)COc2ccc(-n3cnnn3)cc2)cc1	-6.84
Cc1ccccc1NC(=O)c1ccc(CN2CC(=O)N3CCCCC3C2=O)cc1 (stereo not shown)	13
C(=C\c1ccncc1)/c1ccccc1	3.35
Cc1cc(C(C)(C)C)cc(C)c1COC(=O)c1cccnc1	11
CCCN(CC(=O)Nc1ccccc1C)C(=O)C1CC(=O)N(c2ccccc2C(C)CC)C1 (stereo not shown)	11.8
CCC1(CC)Cc2ccccc2C2=C(C(=O)N3CCCCC3)C(=O)C(=O)N21	5.74
Cc1ccc(-c2csc3nc4c5ccccc5c(NCCCN5CCOCC5)nn4c(=O)c23)cc1	1.52
CSCc1c(C(=O)Nc2ccc(N3CCOCC3)cc2)oc2ccccc12	3.32
Cc1cc(=O)oc(C)c1C(=O)O	6.87
COc1ccc(-n2c(=O)c(CCC(=O)N3CCN(c4ccccc4O)CC3)nc3ccccc32)cc1	-7.47
Cc1ccc(S(=O)(=O)Nc2ccccc2C(=O)N2CCOCC2)cc1	8.26

Structure (SMILES)	hERG current change (%, negative = inhibition) at 1uM [%]
CC(c1ccccc1)n1c(-c2cccs2)nc2c(c(=O)c3ccccc3n2C)c1=O (stereo not shown)	11
COc1ccc(NC(=O)CN(Cc2ccccc2)S(C)(=O)=O)c(OC)c1	1.66
O=C(N/N=C/c1ccc([N+](=O)[O-])s1)c1cccc(Br)c1	8.42
Cc1nn(-c2ccccc2)c(Cl)c1/C=N/O	4.67
COc1cc(CNn2c(C)n[nH]c2=S)cc(Cl)c1OCC(=O)NC(C)(C)C	14.3
COc1cccc(Nc2nc(N)c([N+](=O)[O-])c(N3CCOCC3)n2)c1	5.99
CCOc1ccc(CNC(=S)NCc2ccc(OCC)cc2)cc1	17.2
Clc1ccc(-c2csc(-c3ccno3)n2)cc1	15.2
CCN(CC(=O)Nc1c(F)cccc1F)C(=O)c1ccc(S(=O)(=O)N2CCC(C)CC2)cc1	-0.968
Cc1ccccc1NC(=S)NC(NC(=O)CF)C(Cl)(Cl)Cl (stereo not shown)	1.04
O=C(CN1C(=O)C2CCCCC2C1=O)OCC(=O)c1ccc(Cl)s1 (stereo not shown)	5.71
Cc1sc(NC(=O)c2ccccc2)c(C(c2ccccn2)N2CCN(CCO)CC2)c1C (stereo not shown)	5.39
CCOC(=O)C(=O)NNc1ccccc1OC	15.9
O=C(CN1CCC2(CC1)OCCO2)c1ccc2cc[nH]c2c1	-8.03
O=C(O)C[C@H]1c2cc(F)ccc2S(=O)(=O)N1C1CCCC1	19.7
COc1ccc(C(=O)NNC(=O)C(=O)Nc2ccc(C)cc2)cc1	3.44
CC1(C)CC(OC(=O)c2ccco2)CC(C)(C)N1O.Cl	5.4
O=C(/C=C/c1ccc(S(=O)(=O)N2CCOCC2)cc1)N(CCO)Cc1ccccc1	9.69
